Hit rate of the full screen: of about 39,000 compounds, about 220 (0.56%) showed activity. This is one part of the list.
What follows are molecules tested on Escherichia coli K-12 BW25113 (assay: relative growth (OD600 normalised to plate interquartile mean) (fraction); higher = less growth inhibition, active = 0.2 or less). Details: 50 µM; LB; incubation time: overnight (16-24 h).
In the case of `COc1cccc(S(=O)(=O)N2C[C@@H](O)COC[C@H]3O[C@@H](CC(=O)N4CCN(C)CC4)CC[C@@H]32)c1`, the relative growth is reported as inactive: 1.03.
For `Cc1noc(C)c1NC(=O)Nc1ccc2c(c1)C(=O)N([C@H](C)CO)C[C@H](C)[C@@H](CN(C)C(=O)Nc1cccc3ccccc13)O2`, the relative growth was inactive: 0.995.
In the case of `C[C@@H]1CN([C@@H](C)CO)C(=O)c2cc(NC(=O)Nc3ccc(C(F)(F)F)cc3)ccc2O[C@@H](C)CCCCO[C@@H]1CN(C)S(=O)(=O)c1ccc(F)cc1`, the relative growth is reported as inactive: 0.993.
With `C[C@H]1CN([C@@H](C)CO)C(=O)Cc2cc(NC(=O)Nc3cccc4ccccc34)ccc2O[C@@H]1CN(C)Cc1ccncc1` the relative growth was inactive: 0.996.
With `C[C@@H]1CCCCO[C@H](CN(C)CC2CCCCC2)[C@H](C)CN([C@@H](C)CO)C(=O)c2cc(NC(=O)CCC(F)(F)F)ccc2O1` the relative growth was inactive: 0.998.
`COc1ccccc1C(=O)Nc1ccc2c(c1)C(=O)N(C)[C@H]1CC[C@@H](CC(=O)NCCc3ccncc3)O[C@@H]1CO2` was tested, and the relative growth was inactive: 0.979.
For `O=C(C[C@@H]1CC[C@H]2[C@@H](COC[C@H](O)CN2Cc2cc(F)ccc2F)O1)N[C@@H]1CCN(Cc2ccccc2)C1`, the relative growth was inactive: 0.989.
For `Cc1ccc(S(=O)(=O)Nc2ccc3c(c2)C(=O)N([C@@H](C)CO)C[C@H](C)[C@@H](CN(C)Cc2ccccc2)OCCCC[C@H](C)O3)cc1`, the relative growth was inactive: 0.954.
For `C[C@@H]1CN([C@@H](C)CO)S(=O)(=O)c2ccc(C3=CCCCC3)cc2O[C@H]1CN(C)S(=O)(=O)c1cn(C)cn1`, the relative growth was inactive: 1.01.
`COc1ccc(NC(=O)Nc2ccc3c(c2)C(=O)N([C@@H](C)CO)C[C@H](C)[C@H](CN(C)Cc2ccc(-c4ccccc4)cc2)O3)cc1` was tested, and the relative growth was inactive: 1.04.
`C[C@@H]1CCCCO[C@@H](CN(C)Cc2ccccc2)[C@H](C)CN([C@H](C)CO)C(=O)c2cc(NS(=O)(=O)c3cccs3)ccc2O1` was tested, and the relative growth was inactive: 0.983.
`CC(C)CC#Cc1ccc2c(c1)O[C@@H](CN(C)S(=O)(=O)c1cccc(F)c1)[C@H](C)CN([C@H](C)CO)S2(=O)=O` was tested, and the relative growth was inactive: 0.999.
`C[C@H](CO)N1C[C@H](C)[C@H](CN(C)S(=O)(=O)c2cn(C)cn2)Oc2ccc(NC(=O)C3CC3)cc2CC1=O` was tested, and the relative growth was inactive: 1.01.
In the case of `C[C@H](CO)N1C[C@H](C)[C@@H](CN(C)Cc2ccc(C(F)(F)F)cc2)Oc2c(NC(=O)Nc3ccc4c(c3)OCO4)cccc2C1=O`, the relative growth is reported as inactive: 0.841.
With `C[C@@H]1CN([C@@H](C)CO)C(=O)Cc2cc(NC(=O)CCC(F)(F)F)ccc2O[C@H]1CN(C)C(=O)Nc1cccc2ccccc12` the relative growth was inactive: 1.02.
In the case of `Cc1noc(C)c1S(=O)(=O)Nc1ccc2c(c1)CC(=O)N([C@H](C)CO)C[C@H](C)[C@@H](CN(C)S(=O)(=O)c1cccs1)O2`, the relative growth is reported as inactive: 0.987.
For `C[C@@H]1CN([C@@H](C)CO)C(=O)c2cc(NC(=O)Cc3ccccc3)ccc2O[C@@H](C)CCCCO[C@@H]1CN(C)C(=O)Cc1ccccc1`, the relative growth was inactive: 1.02.
In the case of `C[C@@H]1CN([C@H](C)CO)C(=O)Cc2cc(NC(=O)Nc3ccc(C(F)(F)F)cc3)ccc2O[C@H]1CN(C)Cc1ccc(C(=O)Nc2ccccc2N)cc1`, the relative growth is reported as inactive: 1.06.
In the case of `Cc1ccc(S(=O)(=O)N(C)C[C@@H]2Oc3ccc(NC(=O)c4ccncc4)cc3C(=O)N([C@H](C)CO)C[C@@H]2C)cc1`, the relative growth is reported as inactive: 1.02.
`CC(C)NC(=O)N(C)C[C@@H]1Oc2ccc(NS(=O)(=O)c3ccc(Cl)cc3)cc2CC(=O)N([C@H](C)CO)C[C@H]1C` was tested, and the relative growth was inactive: 1.01.
For `C[C@H]1CN([C@@H](C)CO)S(=O)(=O)c2ccc(C#Cc3ccccc3)cc2O[C@@H]1CN(C)C(=O)Cc1ccccn1`, the relative growth was inactive: 0.977.
`Cc1noc(C)c1NC(=O)N(C)C[C@H]1OCCCC[C@@H](C)Oc2ccc(NC(=O)Nc3ccc(C(F)(F)F)cc3)cc2C(=O)N([C@@H](C)CO)C[C@H]1C` was tested, and the relative growth was inactive: 0.981.
For `C[C@@H]1CN([C@@H](C)CO)C(=O)c2cc(NC(=O)Cc3ccccc3)ccc2O[C@@H](C)CCCCO[C@@H]1CN(C)S(=O)(=O)c1cccs1`, the relative growth was inactive: 1.01.
In the case of `Cc1noc(C)c1NC(=O)Nc1ccc2c(c1)C(=O)N([C@@H](C)CO)C[C@@H](C)[C@H](CN(C)Cc1ccc(C(=O)Nc3ccccc3N)cc1)O2`, the relative growth is reported as inactive: 1.05.
`CCCCCCCCCCCCCC(=O)OC(C)C` was tested, and the relative growth was inactive: 1.04.
With `CC(O)(P(=O)(O)O)P(=O)(O)O` the relative growth was inactive: 0.992.
`C[C@H]1CCCCO[C@@H](CN(C)C(=O)C2CCCCC2)[C@@H](C)CN([C@@H](C)CO)C(=O)c2cc(NS(=O)(=O)c3cccs3)ccc2O1` was tested, and the relative growth was inactive: 0.977.
In the case of `C[C@H]1CN([C@@H](C)CO)C(=O)c2cc(NS(=O)(=O)c3cccs3)ccc2O[C@@H]1CN(C)S(=O)(=O)c1ccccc1`, the relative growth is reported as inactive: 0.978.
With `C[C@@H]1CCCCO[C@@H](CN(C)Cc2ccc3c(c2)OCO3)[C@@H](C)CN([C@H](C)CO)C(=O)c2cc(NC(=O)Nc3cccc4ccccc34)ccc2O1` the relative growth was inactive: 1.07.
`NC(=O)c1ccc[n+](CC(=O)N2CCCCC2)c1` was tested, and the relative growth was inactive: 1.03.
`Cc1noc(C)c1NC(=O)Nc1ccc2c(c1)C(=O)N([C@H](C)CO)C[C@H](C)[C@@H](CN(C)Cc1ccc3c(c1)OCO3)OCCCC[C@H](C)O2` was tested, and the relative growth was inactive: 0.993.
`COc1ccc(S(=O)(=O)Nc2ccc3c(c2)[C@@H]2C[C@H](CC(=O)NCC4CC4)O[C@H](CO)[C@@H]2O3)cc1` was tested, and the relative growth was inactive: 1.02.
With `C[C@H](CO)N1C[C@H](C)[C@H](CN(C)S(C)(=O)=O)OCc2cnnn2CCCC1=O` the relative growth was inactive: 1.01.
`O=c1[nH]c(=O)n([C@@H]2O[C@H](CO)[C@@H](O)[C@H]2O)cc1Br` was tested, and the relative growth was inactive: 0.988.
`CC(C)n1c(-c2ccccc2)cs/c1=N\c1ccccc1` was tested, and the relative growth was inactive: 0.934.
`C[C@H](CO)N1C[C@H](C)[C@H](CN(C)Cc2ccc(Oc3ccccc3)cc2)Oc2ccc(NC(=O)Cn3cnnn3)cc2CC1=O` was tested, and the relative growth was inactive: 0.988.
For `C[C@H]1CN([C@@H](C)CO)C(=O)c2cc(NS(=O)(=O)c3ccccc3)ccc2O[C@@H]1CN(C)Cc1ccc(Cl)c(Cl)c1`, the relative growth was inactive: 0.979.
In the case of `COc1ccc(NC(=O)N(C)C[C@H]2OCCCC[C@@H](C)Oc3ccc(NC(=O)Nc4ccc5c(c4)OCO5)cc3C(=O)N([C@@H](C)CO)C[C@H]2C)cc1`, the relative growth is reported as inactive: 1.01.
`Cc1ccc(C(C)C)c(O)c1` was tested, and the relative growth was inactive: 0.967.
`Cc1noc(C)c1S(=O)(=O)Nc1ccc2c(c1)CC(=O)N([C@@H](C)CO)C[C@@H](C)[C@@H](CN(C)Cc1ccc3c(c1)OCO3)O2` was tested, and the relative growth was inactive: 0.993.
In the case of `C[C@@H]1CCCCO[C@@H](CN(C)Cc2ccccc2)[C@H](C)CN([C@H](C)CO)C(=O)c2cc(NC(=O)Nc3ccc(C(F)(F)F)cc3)ccc2O1`, the relative growth is reported as inactive: 0.989.
In the case of `C[C@@H]1CN([C@H](C)CO)C(=O)c2cc(NC(=O)Nc3ccccc3)ccc2O[C@@H](C)CCCCO[C@@H]1CN(C)S(=O)(=O)c1ccccc1`, the relative growth is reported as inactive: 0.987.
For `C[C@@H]1CN([C@@H](C)CO)C(=O)Cc2cc(NC(=O)c3ccncc3)ccc2O[C@H]1CN(C)C(=O)Nc1ccc2c(c1)OCO2`, the relative growth was inactive: 0.983.
In the case of `C[C@@H]1CN([C@H](C)CO)C(=O)c2cc(C#CCN(C)C)cnc2O[C@@H]1CN(C)C(=O)Nc1cccc(F)c1`, the relative growth is reported as inactive: 1.03.
With `O=c1ccc(-n2cccn2)n[nH]1` the relative growth was inactive: 1.
`C[C@H](CO)N1C[C@H](C)[C@H](CN(C)Cc2ccc(Cl)c(Cl)c2)OCc2ccccc2-c2ccccc2C1=O` was tested, and the relative growth was inactive: 0.972.
`O=C(C[C@@H]1C[C@@H]2c3cc(NS(=O)(=O)c4ccc(F)cc4)ccc3O[C@@H]2[C@@H](CO)O1)NCc1ccncc1` was tested, and the relative growth was inactive: 0.984.
For `CCC1NC(=O)c2cc(S(N)(=O)=O)c(Cl)cc2N1` (stereo not given), the relative growth was inactive: 1.13.
With `C[C@@H]1CN([C@H](C)CO)C(=O)c2cc(NC(=O)Nc3cccc4ccccc34)ccc2O[C@@H](C)CCCCO[C@@H]1CN(C)Cc1ccc2c(c1)OCO2` the relative growth was inactive: 1.01.
For `NC[C@H]1OB(O)c2c(OCCO)ccc(Cl)c21`, the relative growth was inactive: 0.982.
With `COc1ccccc1C#Cc1ccc2c(c1)O[C@@H](CN(C)C(C)=O)[C@@H](C)CN([C@@H](C)CO)S2(=O)=O` the relative growth was inactive: 1.01.
In the case of `COc1ccc(CN(C)C[C@H]2OCCCC[C@@H](C)Oc3ccc(NC(=O)Nc4ccc(OC)cc4)cc3C(=O)N([C@@H](C)CO)C[C@@H]2C)cc1`, the relative growth is reported as inactive: 1.01.
With `CO[C@H]1O[C@H](CO)[C@@H](OC(=O)Nc2ccccc2-c2ccccc2)[C@H](OC(=O)Nc2ccc3c(c2)OCO3)[C@@H]1OC(=O)Nc1ccc2c(c1)OCO2` the relative growth was inactive: 1.04.
`C[C@H]1CN([C@@H](C)CO)C(=O)c2cc(NS(=O)(=O)c3ccccc3)ccc2O[C@H]1CN(C)CC1CC1` was tested, and the relative growth was inactive: 1.04.
`CCN(CC)CCNc1ccc(COc2cccc(/C=C(C)/C=C/C(=O)NO)c2)c2sc3ccccc3c(=O)c12` was tested, and the relative growth was inactive: 0.947.
`C=C(CO)C(=O)O[C@H]1C[C@@]2(C)OC(=O)/C(=C/C)[C@]2(O)CC[C@@]2(C)CC(=O)[C@]1(C(=C)C(=O)OC)O2` was tested, and the relative growth was inactive: 1.01.
`CCCNC(=O)N(C)C[C@@H]1Oc2cc(-c3ccc(C)cc3)ccc2S(=O)(=O)N([C@H](C)CO)C[C@@H]1C` was tested, and the relative growth was inactive: 1.02.
In the case of `O=C(O)CCN1C(=O)NC2(CCCC2)C1=O`, the relative growth is reported as inactive: 0.998.
For `COc1cc(O)c(C(=O)O)c(O)c1`, the relative growth was inactive: 0.939.
With `C[C@@H]1CCCCO[C@H](CN(C)S(=O)(=O)c2cccs2)[C@@H](C)CN([C@H](C)CO)C(=O)c2cc(NC(=O)Nc3ccccc3)ccc2O1` the relative growth was inactive: 0.975.
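Also: static incubation at 37 °C against the wild-type strain, values averaged over two biological replicates.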
